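Results reflect a 48-hour exposure of cells in 96-well plates to compound at five concentrations. GI50 marks 50% less growth. Definition used: TGI = concentration required for complete inhibition of growth.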
Test system: NCI-H322M lung
Test: NCI anticancer screen, dose series, 48 h

| SMILES | GI50 | TGI |
| --- | --- | --- |
| COc1ccc(OC)c(-c2cc(-c3c[nH]c4ccccc34)nc(N)c2C#N)c1 | 5.76 µM | 19.1 µM |
| CC(C)(C)c1ccc(NCc2cn(-c3ccc(C(=O)O)cc3)nc2-c2ccc(C#N)cc2)cc1 | 9.84 µM | 23.6 µM |

— PubChem BioAssay (NCI)
